± gives the standard deviation of the averaged measurements. The list shows a part of the results.
These sequences were tested on PfAP2-G AP2 domain (GST-tagged) (assay: gcPBM binding intensity (ln(normalized median fluorescence intensity)); higher = stronger DNA binding).
In short: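 An Agilent 4 × 180k array of primer-extended double-stranded 36-bp intergenic genomic probes, with negative controls, was incubated for 1 h with GST-tagged P. falciparum DNA-binding domains expressed in E. coli. Alexa488 anti-GST antibody detected bound protein, scanned at 488 nm. Binding intensity is the highest Masliner-normalised natural-log median intensity across replicate spots of either probe orientation.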

| Sequence | gcPBM binding intensity (ln) |
| --- | --- |
| TCTTTTTCAAGATGACGTACTTAGATTAATATAAAA [XGTACX_site3931] | 11.1 ± 0.8 |
| TTTTTTTAATGATATTGTACATTAATAAAAAATATG [XGTACX_site1719] | 10.8 ± 0.61 |
| ATCGTGTTAAATGTTGTGCACATATAAATTACAAAA [GTGCAC_site9822] | 10.8 ± 0.52 |
| AATTTTGGAACGTGCACACATATGTAATATATATAT [CACACA_site3067] | 10.5 ± 0.36 |
| ATATGATCATTTTATCATTTTGCTTTTTCTTTTTTT [CACACA_negctrl_site1325] | 9.4 ± 0.42 |
| TTTTGATCTGAAGGAACCTAAAAAGGGAAGAGAAAA [CACACA_negctrl_site1656] | 10.1 ± 0.35 |
| CAAAAGTAAGCACGCACACACAACATGAAATAAAAT [CACACA_site165] | 10.3 ± 0.28 |
| TATACACTTATTGGTGGTACAATATATAAATATATG [XGTACX_site3289] | 11.4 ± 0.89 |
| TTTTTAATATATTAGGTGCACAATAATACACTTTAT | 10.6 ± 0.51 |
| TATATATATATTTATACACACACATATATTTATATA [CACACA_site8054] | 9.93 ± 0.16 |
| ATTAGTATAATGTAACTTAGTTAATAGTGCTAATAT [CACACA_negctrl_site764] | 10.2 ± 0.29 |
| ACAAAATAAAACATCTGTACATATTATTATTATAAG [XGTACX_site4802] | 11.1 ± 0.64 |
| TATATTTATAACAACACACACAGATCATAAAACTGC [CACACA_site7086] | 10.2 ± 0.12 |
| AAAAAAAAAAAAAAAACACACACATGCACATCATAT [CACACA_site8083] | 10.4 ± 0.21 |
| AAAAAAAACACGCGCACACACACACCCACCCACCGA [CACACA_site2206] | 10.7 ± 0.34 |
| TTTTTGGTATTATTGTGTACTTATAAATAATATAAT [XGTACX_site4019] | 11.5 ± 0.91 |
| GAAAAAAAAGCTTGCACACGTATTTGCTTTATGTAT [CACACA_site4931] | 10.5 ± 0.13 |
| TACATATATATATTATGTACATAAGGTTTGAGTTCA [XGTACX_site2726] | 11.1 ± 0.61 |
| TTTTATACATATTTTACACACTAAAATATACCTATA [CACACA_site6286] | 10.11 ± 0.071 |
| TAAAAAATATACATTCGTACATATATATTATATATA [XGTACX_site7918] | 10.8 ± 0.67 |
| ATATATATAAATAATTGTACATAATAATAAAATATA [XGTACX_site4839] | 11 ± 0.64 |
| ATATTTTGTAACTATACACACATATTTATATTATAA [CACACA_site7433] | 10.04 ± 0.078 |

| Sequence | gcPBM binding intensity (ln) |
| --- | --- |
| CAAGTAGATATTATACGTACATATATATATATATAT [XGTACX_site8349] | 11.4 ± 0.84 |
| TTTACATTTCAGTAGACACACAAAAAATAATACTAA [CACACA_site512] | 10.2 ± 0.28 |
| ATAATTCCAAGAATTTCATATATCTGAATTTTAGGT [GTGCAC_negctrl_site283] | 9.61 ± 0.2 |
| ATATATATATATATTACACACTTTTTCTTTTTTTTT [CACACA_site2780] | 9.9 ± 0.45 |
| AATAAACATAAATAAAAATTATAAAATATATATATG [CACACA_negctrl_site1709] | 9.65 ± 0.071 |
| AAAAAAAAATATACATATATATATATATATATATAT [CACACA_negctrl_site1763] | 9.74 ± 0.56 |
| GTGGAATAATATATATGTACATATTTAAAATATTTA [XGTACX_site3499] | 11.1 ± 0.66 |
| AATGGTCTTTTCAACACACGTACATAAAAATATTAT [CACACA_site2571] | 11.5 ± 0.95 |
| TATTATTTTAGAATGCGTACTTATAAAATATTTTAT [XGTACX_site867] | 11.5 ± 0.96 |
| ATTTTTTTACAAAAATGTACACATGAAATATGTAAT [XGTACX_site1372] | 11.3 ± 0.69 |
| TAAAAGTATATATATACACACATAAATATATCTGTA [CACACA_site4537] | 9.76 ± 0.028 |
| TGACAACATAGAGGGGCACACACATATATACATAAA [CACACA_site8550] | 10.6 ± 0.53 |
| TTAAATTATTAGAGAGTGCATTATATATATTATACA [GTGCAC_site9711] | 9.71 ± 0.13 |
| GTGTGATGGTCCAATATACACACTTAAAAAAAAAAA [CACACA_site2426] | 10.8 ± 0.72 |
| TACTGTTATAAATGTGGTACTAATATTATACATATA [XGTACX_site5116] | 11.1 ± 0.74 |
| TATATATATATATACACATGCAAAAATTTTTAATTT [TGCATGCA_site82] | 10.2 ± 0.35 |
| TTTCTATATGGATTTGCACACATAAAAATGCTTATA [CACACA_site8751] | 10.1 ± 0.26 |
| TTATTTAACGTATTCTCACACATATATATATATAAT [CACACA_site5226] | 10.3 ± 0.23 |
| ACATAAGAATTTTTATGTACTCATAATATTTTATAT [XGTACX_site2398] | 11.5 ± 0.96 |
| TACATACTAAAAAAATGTACTTGTATTGTTTTTTTA [XGTACX_site8357] | 11.1 ± 0.64 |
| GAAATATTTGTAAAAACATGCATGGTACTTTTAAAA [TGCATGCA_site6] | 11 ± 0.7 |
| TAGAAGCATCATTTTACACACATGCAAATGTAAAAT [CACACA_site1893] | 9.83 ± 0.085 |

Source: the supplement of paper PMC11417369
